The source of these data is article PMC4336329 (PLoS ONE, 2015).

About 2,200 (0.71%) of roughly 310,000 compounds showed an effect of 50% or more. Effects have a minus sign here. Some of the results follow.

human ether-à-go-go-related gene (hERG) potassium channel, sequence (Q12809 whole entry, looked up): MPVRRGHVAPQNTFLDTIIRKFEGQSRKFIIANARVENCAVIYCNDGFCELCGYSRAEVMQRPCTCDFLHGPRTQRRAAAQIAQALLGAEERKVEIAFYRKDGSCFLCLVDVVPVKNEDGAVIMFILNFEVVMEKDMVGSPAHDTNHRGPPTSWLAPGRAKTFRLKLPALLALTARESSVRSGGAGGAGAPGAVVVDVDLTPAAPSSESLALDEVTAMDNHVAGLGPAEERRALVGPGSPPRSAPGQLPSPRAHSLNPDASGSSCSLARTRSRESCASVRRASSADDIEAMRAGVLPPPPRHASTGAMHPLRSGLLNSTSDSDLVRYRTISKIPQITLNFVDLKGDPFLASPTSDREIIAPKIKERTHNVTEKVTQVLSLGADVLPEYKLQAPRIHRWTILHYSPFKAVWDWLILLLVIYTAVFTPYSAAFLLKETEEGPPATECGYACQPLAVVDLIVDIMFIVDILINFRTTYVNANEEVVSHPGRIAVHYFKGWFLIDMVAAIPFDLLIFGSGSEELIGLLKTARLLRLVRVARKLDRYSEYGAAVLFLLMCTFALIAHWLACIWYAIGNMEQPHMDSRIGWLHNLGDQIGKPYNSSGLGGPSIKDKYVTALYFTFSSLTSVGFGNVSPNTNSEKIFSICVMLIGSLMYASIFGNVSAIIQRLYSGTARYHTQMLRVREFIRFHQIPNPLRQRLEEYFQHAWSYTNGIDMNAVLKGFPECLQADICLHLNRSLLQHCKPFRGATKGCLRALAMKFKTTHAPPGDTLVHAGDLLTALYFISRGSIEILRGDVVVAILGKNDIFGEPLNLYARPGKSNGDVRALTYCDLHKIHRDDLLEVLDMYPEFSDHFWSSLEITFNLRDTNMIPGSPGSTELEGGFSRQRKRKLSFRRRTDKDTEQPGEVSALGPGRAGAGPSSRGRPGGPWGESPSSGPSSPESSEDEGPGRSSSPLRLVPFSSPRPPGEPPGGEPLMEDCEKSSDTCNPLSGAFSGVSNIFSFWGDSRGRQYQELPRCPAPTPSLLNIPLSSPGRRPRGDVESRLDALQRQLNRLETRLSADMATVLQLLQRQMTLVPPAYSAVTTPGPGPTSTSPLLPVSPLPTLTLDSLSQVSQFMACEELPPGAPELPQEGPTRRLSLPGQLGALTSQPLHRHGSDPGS

The assay addresses human ether-à-go-go-related gene (hERG) potassium channel (human, UniProt Q12809). The assay is described as follows: primary screen, population patch clamp on CHO cells stably expressing hERG.
For `COc1cccc(CNc2nnnn2C)c1OC`, the “hERG current change (%, negative = inhibition) at 1uM” value is 13.8%. On to `COc1ccc(CCNC(=S)NC2CCN(Cc3ccccc3)CC2)cc1`, for which the “hERG current change (%, negative = inhibition) at 1uM” value is given as -5.37%. Take `CC(=O)Nc1ccc(S(=O)(=O)Nc2cccc(-c3csc(C)n3)c2)cc1`: the “hERG current change (%, negative = inhibition) at 1uM” value was determined as 7.78%.

For the compound `COc1cc2c(cc1OC)C1=NC(=O)CN1C(SCc1ccccc1C)=N2`, the “hERG current change (%, negative = inhibition) at 1uM” value came to 3.52%. Then `O=C(NC1CCCCC1)C1CCN(c2nccs2)CC1`, with 14.1%; and `COc1ccccc1Nc1ccc([N+](=O)[O-])cc1N`, with 20.2%. Turning to `O=C(Nc1ccc(C(=O)N2CCC([NH+]3CCCC3)CC2)cc1)c1ccc(Br)o1.O=C(O)C(F)(F)F`, the “hERG current change (%, negative = inhibition) at 1uM” value turned out to be 10.8%. As for `COc1ccc(/C=C/C(=O)OCC(=O)NCc2ccco2)c(OC)c1`, the “hERG current change (%, negative = inhibition) at 1uM” value was found to be 6.09%. In the case of `O=C(NC1CCCCC1)C(c1ccc2ncccc2c1)N(Cc1ccccc1)C(=O)c1cccs1` (centres unmarked), the “hERG current change (%, negative = inhibition) at 1uM” value is reported as -11.7%.

As to `CCCC[C@@H](CNC)NC[C@H](Cc1ccc(O)cc1)NCCc1ccc(OCC)cc1`, the “hERG current change (%, negative = inhibition) at 1uM” value is listed as -0.35%. Regarding `CCOC(=O)c1c(C)oc(/N=C/c2ccccc2O)c1C#N`, the “hERG current change (%, negative = inhibition) at 1uM” value turned out to be 6.75%. For the compound `CCOC(=O)c1oc2ccccc2c1NC(=O)c1cccs1`, the “hERG current change (%, negative = inhibition) at 1uM” value was found to be 0.447%. On to `CC(=O)c1c(C)[nH]c(C(=O)OCC(=O)Nc2ccc(C)cc2[N+](=O)[O-])c1C`, for which the “hERG current change (%, negative = inhibition) at 1uM” value worked out at 1.31%.

`CCOC(=O)CSc1ncnc2c1cnn2-c1ccccc1`: the “hERG current change (%, negative = inhibition) at 1uM” value is on record as 4.26%.

Take `CC1Cc2ccccc2N1C(=O)CSc1nc2ccccc2o1` (centres unmarked): the “hERG current change (%, negative = inhibition) at 1uM” value is recorded as 2.83%.

In the case of `S=C1NCCOCCOCCOCCOCCN1`, the “hERG current change (%, negative = inhibition) at 1uM” value turned out to be 3.3%. With `COc1ccc2oc(C(=O)NCc3cc(OC)c(OC)cc3OC)c(C)c2c1`, the “hERG current change (%, negative = inhibition) at 1uM” value turned out to be 9.41%. Consider `CCOc1cc(CN2CCN(C(=O)CC(C)C)CC2)ccc1OC.O=C(O)C(=O)O`, for which the “hERG current change (%, negative = inhibition) at 1uM” value is listed as -2.57%. On to `CCCNc1cc(=O)n(C)c(=O)n1C`, for which the “hERG current change (%, negative = inhibition) at 1uM” value is on record as 30.6%. Turning to `CCn1c(C(=O)N2CCC(Cc3ccccc3)CC2)cc2sccc21`, the “hERG current change (%, negative = inhibition) at 1uM” value is -1.46%.

`COc1cccc(N2CCN(C(=O)c3[nH]c(C)c(C(C)=O)c3C)CC2)c1`: the “hERG current change (%, negative = inhibition) at 1uM” value amounted to 11.3%. Consider `O=[N+]([O-])c1ccccc1/C=N/n1c(-c2ccccc2)n[nH]c1=S`, for which the “hERG current change (%, negative = inhibition) at 1uM” value was determined as 10.3%. For the compound `CC(C)c1nc(CNC(=O)C2CCC(=O)N(CCc3ccc(Cl)cc3)C2)no1` (centres unmarked), the “hERG current change (%, negative = inhibition) at 1uM” value was -2.23%. For `CCN(CC)CCN(C(=O)c1ccc2c(c1)CCCC2)c1nc2ccc(F)cc2s1.Cl`, the “hERG current change (%, negative = inhibition) at 1uM” value turned out to be 11.6%. `Cc1cccc(OCc2n[nH]c(=S)n2-c2ccccc2)c1`: the “hERG current change (%, negative = inhibition) at 1uM” value is 6.06%. Turning to `O=C1CCC2=C(CCCC2=O)N1`, the “hERG current change (%, negative = inhibition) at 1uM” value was 8.8%.

Regarding `COc1ccc(-n2nc(C(=O)Nc3cc(OC)c(OC)c(OC)c3)c3ccccc3c2=O)c(OC)c1`, the “hERG current change (%, negative = inhibition) at 1uM” value is recorded as 3.9%. As to `CCNc1nc(NC(C)(C)C)nc(N2CCCCC2)n1`, the “hERG current change (%, negative = inhibition) at 1uM” value came out at 7.06%.

`O=C(CCCc1cccs1)Nc1nc2c(s1)CCCC2`: the “hERG current change (%, negative = inhibition) at 1uM” value is recorded as 5.09%. Take `CCCCCCSc1cc(-c2nc3ccc(C)cn3c2NCc2ccccc2)ccc1OC.O=C(O)C(F)(F)F`: the “hERG current change (%, negative = inhibition) at 1uM” value was determined as 17%. `Cc1cccc(Cc2c(C)nc3nc(SCC(=O)O)nn3c2C)c1`: the “hERG current change (%, negative = inhibition) at 1uM” value is given as 16.4%. In the case of `Cn1c(=O)n(C)c2cc(S(=O)(=O)N3CCOCC3)ccc21`, the “hERG current change (%, negative = inhibition) at 1uM” value came to 7.26%.

Take `CC(=O)Nc1ccc(S(=O)(=O)Nc2ccccc2C(=O)N2CCCCCC2)cc1`: the “hERG current change (%, negative = inhibition) at 1uM” value is on record as 9.05%.

Regarding `COC(/C=C/Nc1ccc(C)c(C)c1)=C(C#N)C#N`, the “hERG current change (%, negative = inhibition) at 1uM” value is 0.55%. As to `Oc1c(C=C2N=c3ccccc3=N2)sc(=S)n1-c1ccc(F)cc1` [17505669], the “hERG current change (%, negative = inhibition) at 1uM” value is 5.08%. As to `Cc1ccc(NC(=O)CS(=O)CC(=O)NCCCc2ccccc2)cc1Cl` (centres unmarked), the “hERG current change (%, negative = inhibition) at 1uM” value is recorded as 5.31%. As for `COc1cccc(N2CCN(C(=O)CCc3nnc4ccc(N5CCOCC5)nn34)CC2)c1`, the “hERG current change (%, negative = inhibition) at 1uM” value is -0.0727%. Then `COC(=O)c1ccc(NC(=O)NCCCl)cc1`, with 10.3%; and `COc1ccc(N2CC(C(=O)N3CCN(c4ccccc4)CC3)CC2=O)cc1` (centres unmarked), with -8.5%; and `Cc1c(C(=O)O)[nH]c2c1C(=O)CC(c1ccccc1)C2` (centres unmarked), with 9.9%. As to `CCOc1ccc2[nH]c(C)cc(=O)c2c1`, the “hERG current change (%, negative = inhibition) at 1uM” value is recorded as -0.0577%. Turning to `O=C(/C=C/c1ccco1)Nc1ccc(CN2CCOCC2)cc1`, the “hERG current change (%, negative = inhibition) at 1uM” value is listed as -17.2%. In the case of `O=c1/c(=C/c2ccc([N+](=O)[O-])cc2)sc2n1CCCN=2`, the “hERG current change (%, negative = inhibition) at 1uM” value was -3.34%. For the compound `COC(=O)Cn1c(=NC(=O)c2ccc(S(=O)(=O)N3CCOCC3)cc2)sc2cc(S(N)(=O)=O)ccc21`, the “hERG current change (%, negative = inhibition) at 1uM” value came out at 8.39%.
